Measured values as given in PubChem BioAssay AID686970 (National Center for Advancing Translational Sciences (NCATS), 2013).
Among all 360,000 compounds or so, about 6,000 (1.7%) were called active. The inconclusive results got no clear call from the source; some entries with a clear call stand among them for comparison. Calls come from the whole dose curve; as a rule, active = well fitted cell-killing curve with a large enough effect; inconclusive = small, poorly fitted or top-dose-only effect, or effect the other way; inactive = flat fitted curve, though single readings scatter. Potencies of inconclusive entries are left out as doubtful fits.

Assay: qHTS for induction of synthetic lethality in tumor cells producing 2HG: qHTS for the HT-1080-NT fibrosarcoma cell line;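 note: NT is the 2HG producing partner of a matched IDH1 knockdown line; nearly all actives have a fitted effect of over 55% in size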;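 for activity, negative = less viability: 0% = DMSO-treated cells and -100% = media-only wells without cells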
Settings: HT-1080-NT fibrosarcoma viability, CellTiter-Glo ATP luminescence, 48 h; activity, negative = less viability: at 46.1 µM (top of the series) unless noted
Summary of the method: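 750 cells/well, RPMI + 5% FBS; 2 h settle, compound pin-transfer, 48 h at 37 degrees C. CellTiter-Glo 10 min RT, luminescence. Normalized to DMSO and media-only wells.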
Potency is the fitted concentration of half-maximal effect; tags give direction and shape of the fitted curve.

SMILES | Potency | activity, negative = less viability
COc1ccc(-n2nnnc2SCC(=O)c2cccc(OC)c2)cc1 | active: 22.4 µM | –
CN(C)CC(c1ccccc1)c1ccccc1 | inactive | –
Cn1c(=O)n(C)c2cc(N3CCOCC3)c(NC(=O)c3cccc(Cl)c3)cc21 | inactive | –
COC(=O)[C@@]12OC[C@]34[C@H]([C@@H](O)[C@@H]1O)[C@@]1(C)C(=O)C(O[C@@H]5OC(CO)[C@@H](O)[C@@H](O)[C@@H]5O)=C[C@@H](C)[C@@H]1C[C@H]3OC(=O)[C@H](OC(=O)/C=C(\C)C(C)(C)OC(C)=O)[C@@H]24 (some centres not stated) | inconclusive [cytotoxic, full curve, poor fit] | –
CCCCCc1cc(=O)oc2c(C(CCN(CC)CC)c3ccc(N(C)C)cc3)c(OC)cc(OC)c12 (configuration not stated) | active: 18.4 µM | –
Cc1ccc(NC(=S)NCCN(C2CCCCC2)C2CCCC2)cc1C | inconclusive [cytotoxic, single point] | –
c1ccc(Cc2c(-c3ccco3)nc3c4ccccc4ccn23)cc1 | inconclusive [cytotoxic, single point] | –
Cn1cccc1C(=O)OCc1ccc(F)cc1 | – | inconclusive: -14% [cytotoxic]
CCOC(=O)C1=C(N)Oc2ccc3ccccc3c2C1c1ccc(O)c(OC)c1 (configuration not stated) | active: 20.6 µM | –
CCc1ccc(NC(=O)[C@H](C)NC(=O)C2CCN(C(=O)[C@@H](NC(=O)OC(C)(C)C)C(C)C)CC2)cc1 | inactive | –
COC(=O)c1ccccc1OCCCN(C)C | inactive | –
Cc1csc2nc(CCNS(=O)(=O)c3ccc4c(c3)OCCO4)cn12 | inactive | –
CCc1nc2c(OCc3ccc(Cl)cc3Cl)cccn2c1N(C)C(=O)C1CC1 | inconclusive [cytotoxic, single point] | –
CN(C)Cc1ccccc1Sc1cccc2ccccc12 | inconclusive [cytotoxic, single point] | –
CCCCCCCCCCn1c2c(c(=N)c3c1CCC3)CCC2 | active: 1.03 µM | –
CC(C)(C)NC(=O)CN(C(=O)C1(C)CC(=O)N=C2C=CC=CN21)C1CCCC1 (configuration not stated) | – | inactive: 2.76% [at 9.24 µM]
CC1=CC(=O)C=C(C)C1=NOS(=O)(=O)c1ccccc1 | inconclusive [cytotoxic, single point] | –
CC1(C(=O)Nc2cccc3cccnc23)CCN1Cc1cccc2c1OCO2 (configuration not stated) | active: 6.51 µM | –
COCCCN1C(=O)C(=O)/C(=C(/O)c2ccc(S(=O)(=O)N3CCOCC3)cc2)C1c1ccc(OC)cc1 (configuration not stated) | inactive | –
CC(C)c1nnc(NC(=O)c2nc(S(=O)(=O)Cc3ccc(F)cc3)ncc2Cl)s1 | active: 25.9 µM | –
O=C(Nc1ccccn1)c1cc2ccccc2o1 | inconclusive [cytotoxic, single point] | –
CCOc1ccccc1NC(=O)CN(c1ccc(OC)cc1)S(=O)(=O)c1c(C)noc1C | active: 5.17 µM | –
Cc1ccnc(NC(=O)c2ccc(S(=O)(=O)NCc3ccco3)cc2)c1 | inconclusive [cytotoxic, single point] | –
CN1C/C(=C\c2ccc(N3CCOCC3)cc2)C(=O)/C(=C/c2ccc(N3CCOCC3)cc2)C1 | inconclusive [cytotoxic, single point] | –

SMILES | Potency | activity, negative = less viability
Cc1cccc(CS(=O)(=O)c2ncc(Cl)c(C(=O)Nc3ccc(F)cc3)n2)c1 | inconclusive [cytotoxic, single point] | –
COc1cc(C(CCN2CCCC(C)C2)c2c(OC)cc(OC)c3c(-c4ccccc4)cc(=O)oc23)cc(OC)c1OC (configuration not stated) | active: 18.4 µM | –
Cc1ccc(Cl)cc1NC(=O)C[n+]1ccc(Cc2ccc([N+](=O)[O-])cc2)cc1 | inconclusive [cytotoxic, single point] | –
C=CCNC(=O)c1c2c(nc3ccccc13)-c1ccccc1CC2 | inactive | –
Cc1cccc(NC(=O)CSCC(=O)Nc2cc(Cl)ccc2N2CCOCC2)c1 | inactive | –
Cc1ccc(Nc2nc(NCC3CC3)nc3ccsc23)c(C)c1 | active: 11.6 µM | –
Cc1ccc(C(C)C)c(OCCNC(=O)c2ccccc2O)c1 | inconclusive [cytotoxic, single point] | –
COc1cccc(C2c3[nH]c4ccccc4c3CCN2C(=O)c2ccccc2F)c1OC (configuration not stated) | inconclusive [cytotoxic, single point] | –
Nc1nc2ccccc2n1C(=O)CCc1ccccc1 | inconclusive [cytotoxic, partial curve] | –
Cc1cc2oc3c(c(=O)c2cc1C)C(c1cccc(Br)c1)N(Cc1ccco1)C3=O (configuration not stated) | inconclusive [cytotoxic, single point] | –
CC(=O)N(Cc1ccc(Br)cc1)c1cccc(C)c1C | inconclusive [cytotoxic, single point] | –
C=CCc1ccc(OCCCCN2CC(C)OC(C)C2)c(OC)c1 (configuration not stated) | inactive | –
O=C(Cc1ccccc1)NC1c2ccccc2-c2ccccc21 | inconclusive [rising, single point] | –
CCCC1=Nc2cc(C(=O)NCCN3CCCC3)ccc2Sc2ccccc21 | inconclusive [cytotoxic, single point] | –
COc1c(OC(C)=O)ccc(/C=C/c2ccc3cccc(OCc4ccccc4)c3n2)c1[N+](=O)[O-] | inconclusive [cytotoxic, single point] | –
COCCn1c(=S)[nH]c2cc(C(=O)N3CCc4ccccc43)ccc2c1=O | inconclusive [cytotoxic, single point] | –
O=C(CSc1nnnn1-c1ccc(O)cc1)Nc1ccc(N2CCOCC2)c(Cl)c1 | inconclusive [cytotoxic, single point] | –
Cc1[nH][nH]c(=O)c1C(c1ccc2c(c1)OCO2)c1c(C)[nH][nH]c1=O | inconclusive [cytotoxic, single point] | –
CC(=O)NCCC(=O)N1CCc2c([nH]c3ccccc23)C1c1cccc(Cl)c1 (configuration not stated) | inconclusive [cytotoxic, single point] | –
CCOC(=O)c1oc2c(CN3CCN(C)CC3)c(O)c(CC)cc2c(=O)c1-c1nc2ccccc2s1 | inactive | –
O=C1NC(Cc2ccc(O)cc2)c2nc3ccccc3c(=O)n2-c2ncccc21 (configuration not stated) | inactive | –
COC(=O)[C@@]12C[C@@H](CC(=O)NCc3cccc4ccccc34)C(=O)N(CCc3ccc(OC)c(OC)c3)C1=CCC(C)(C)C2 | inconclusive [cytotoxic, single point] | –
O=c1nc2ccc(Cl)cn2c2ccc(S(=O)(=O)N3CCOCC3)cc12 | inactive | –
CCOC(=O)C1(Cc2ccc(OC)cc2)CCN(C(=O)c2ccc3[nH]ccc3c2)CC1 | active: 13 µM | –

SMILES | Potency | activity, negative = less viability
COc1ccc(C(=O)c2no[n+]([O-])c2C(=O)c2ccc(OC)cc2)cc1 | inconclusive [cytotoxic, single point] | –
COC(=O)CCSC(=S)N1CCOCC1 | inactive | –
COC(=O)COc1ccc(-c2nccc(-c3ccc(Br)cc3)n2)cc1 | inconclusive [rising, partial curve] | –
CCC(=O)NC(NC(=S)Nc1ccc(S(N)(=O)=O)cc1)C(Cl)(Cl)Cl (configuration not stated) | inactive | –
Cc1ccccc1NC(=O)c1ccc(F)c(S(=O)(=O)N2CCN(c3ccccn3)CC2)c1 | inconclusive [cytotoxic, partial curve] | –
CSc1nc(NCc2ccco2)c2ccccc2n1 | inactive | –
COc1ccc(S(=O)(=O)N2CCOC2CNC(=O)C(=O)NCCc2ccc(OC)c(OC)c2)cc1 (configuration not stated) | inactive | –
C[C@H]1CN([C@@H](C)CO)S(=O)(=O)c2ccc(C#Cc3ccccn3)cc2O[C@@H]1CN(C)C(=O)C1CC1 | inconclusive [rising, single point] | –
CS(=O)(=O)c1cccc(-c2nnc(NC(=O)c3ccc4ncsc4c3)o2)c1 | inactive | –
CN1CCCC(CC2c3ccccc3Sc3ccccc32)C1 (configuration not stated) | active: 20.6 µM | –
O=C(COc1ccc(/C=N/NS(=O)(=O)c2ccccc2)cc1)Nc1cccc(Cl)c1 | – | inconclusive: -32.3% [cytotoxic]
COc1ccccc1N1CCN(CC(O)COc2cccc3ccccc23)CC1 (configuration not stated) | inconclusive [cytotoxic, partial curve] | –
O=C(O)c1ccccc1NS(=O)(=O)c1ccc(NN=Cc2cccc(Cl)c2)c([N+](=O)[O-])c1 | inactive | –
COc1ccc(Nc2cc(C)nc(-n3nc(C)cc3C)n2)cc1 | active: 1.12 µM | –
Cc1cccc(C)c1OCC(=O)NNC(=S)NC(=O)C1CC1 | inconclusive [cytotoxic, partial curve] | –
O=C(C1CC1)N1CCN=C1SCc1ccccc1Cl | inactive | –
COc1cc(NS(=O)(=O)c2ccc(Nc3nc(-c4ccccc4)cs3)cc2)nc(OC)n1 | inconclusive [cytotoxic, single point] | –
CC1(C)C(=O)Nc2ccccc2N1C(=O)COC(=O)c1cccc(O)c1 | inactive | –
CN1CCC(=C2c3ccccc3CC(=O)c3sccc32)CC1 | inconclusive [cytotoxic, partial curve] | inconclusive: 5.16%
Cc1cc(N)cc(C)c1-c1c(Br)cc(N)cc1Br | inconclusive [cytotoxic, single point] | –
COc1ccc(-c2sc3cc4c(cc3c2C#Cc2ccc(N)cc2)OCO4)cc1 | inconclusive [cytotoxic, single point] | –
CCc1ccc(-n2c(CSc3nnnn3-c3ccccc3)nc3ccccc3c2=O)cc1 | inactive | –
Cc1ccccc1Cn1cc(NC(=O)c2cc(-c3cccs3)on2)cn1 | – | inconclusive: -30.4% [cytotoxic]
